From the supplement of paper PMC8792480
Some of the results follow. Most values come without repeats; read them as rough.

Columns and labels:
NCI-H460 [1] = assay: cell-surface PD-L1 MFI ratio relative to radiation alone (isotype-subtracted); higher = higher PD-L1 surface expression; conditions: inducer: radiation 8 Gy; 10 µM; 24 h
Procedure: (§1)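 A549 and H460 NSCLC cells were treated with each library drug at 10 uM, then with radiation (8 Gy) or cisplatin (4 uM), and incubated for 24 h. Cell-surface PD-L1 was measured by flow cytometry as an MFI ratio: (MFI drug+inducer - MFI isotype)/(MFI inducer alone - MFI isotype). Hits were defined as ratio < 0.75.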

NCI-H460 [2] = assay: cell-surface PD-L1 MFI ratio relative to cisplatin alone (isotype-subtracted); higher = higher PD-L1 surface expression; conditions: inducer: cisplatin 4 uM; 10 µM; 24 h
Procedure: as §1
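Wherever cell-surface PD-L1 MFI ratio relative to radiation alone (isotype-subtracted) is given: surface PD-L1 on NSCLC cells stained with a PE-labelled anti-human PD-L1 antibody before flow cytometry, screening a library of roughly two hundred mostly kinase and epigenetic inhibitors.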

| Compound | cell-surface PD-L1 MFI ratio (NCI-H460 [1]) | cell-surface PD-L1 MFI ratio (NCI-H460 [2]) |
| --- | --- | --- |
| O=c1cc(N2CCOCC2)oc2c(-c3cccc4c3sc3ccccc34)cccc12 | inactive: 0.786 | active: 0.542 |
| CC(C)(C)c1nc(-c2ccc(NC(=O)Nc3cccc(C(F)(F)F)c3)c3ccccc23)c2c(N)nccn12 [kira6] | active: 0.667 | active: 0.734 |
| Oc1c2ccccc2c2c3c(cccc13)N=N2 | inactive: 1.27 | inactive: 1.34 |
| N#CC[C@H](C1CCCC1)n1cc(-c2ncnc3[nH]ccc23)cn1 | inactive: 1.12 | inactive: 1.47 |
| CCS(=O)(=O)N1CC(CC#N)(n2cc(-c3ncnc4[nH]ccc34)cn2)C1 | inactive: 1.06 | inactive: 1.24 |
| CCNC(=O)c1noc(-c2cc(C(C)C)c(O)cc2O)c1-c1ccc(CN2CCOCC2)cc1 [Luminespib (AUY-922, NVP-AUY922)] | inactive: 0.863 | active: 0.492 |
| CN(C)C/C=C/C(=O)Nc1ccc(C(=O)Nc2cccc(Nc3ncc(Cl)c(-c4c[nH]c5ccccc45)n3)c2)cc1 | inactive: 1.4 | inactive: 1.21 |
| Cc1[nH]c(/C=C2\C(=O)Nc3ccccc32)c(C)c1CCC(=O)O [Orantinib (TSU-68, SU6668)] | inactive: 1.05 | inactive: 1.02 |
| CC(C)N(C[C@H]1O[C@@H](n2cnc3c(N)ncnc32)[C@H](O)[C@@H]1O)[C@H]1C[C@@H](CCc2nc3cc(C(C)(C)C)ccc3[nH]2)C1 [Pinometostat (EPZ5676)] | inactive: 1.02 | active: 0.659 |
| CN(CC(=O)N(Cc1ccc(C2CCCCC2)cc1)c1ccc(C(=O)O)cc1)S(=O)(=O)c1c(F)c(F)c(F)c(F)c1F | inactive: 1.35 | inactive: 1.02 |
